Source: article PMC12900513
These are yes or no findings as the source states them, for the method shown. Binding seen in cells or lysates may run through a third protein. Some results given as binding are weak or reduced against the parent protein; the word gives no strength. For part of these data: Tags and fused reporters may be left off the sequences shown. One block for each binder: values may come before it.

The chains behind the UniProt entries cited, without tags or fusion partners. Where a name states a change or a piece, a line headed by the entry shows the natural chain unless it says otherwise. A line that says so, or that is headed by a name, gives the form on record, which may keep a tag or linker. Residues count along the entry.
UniProt Q9H694: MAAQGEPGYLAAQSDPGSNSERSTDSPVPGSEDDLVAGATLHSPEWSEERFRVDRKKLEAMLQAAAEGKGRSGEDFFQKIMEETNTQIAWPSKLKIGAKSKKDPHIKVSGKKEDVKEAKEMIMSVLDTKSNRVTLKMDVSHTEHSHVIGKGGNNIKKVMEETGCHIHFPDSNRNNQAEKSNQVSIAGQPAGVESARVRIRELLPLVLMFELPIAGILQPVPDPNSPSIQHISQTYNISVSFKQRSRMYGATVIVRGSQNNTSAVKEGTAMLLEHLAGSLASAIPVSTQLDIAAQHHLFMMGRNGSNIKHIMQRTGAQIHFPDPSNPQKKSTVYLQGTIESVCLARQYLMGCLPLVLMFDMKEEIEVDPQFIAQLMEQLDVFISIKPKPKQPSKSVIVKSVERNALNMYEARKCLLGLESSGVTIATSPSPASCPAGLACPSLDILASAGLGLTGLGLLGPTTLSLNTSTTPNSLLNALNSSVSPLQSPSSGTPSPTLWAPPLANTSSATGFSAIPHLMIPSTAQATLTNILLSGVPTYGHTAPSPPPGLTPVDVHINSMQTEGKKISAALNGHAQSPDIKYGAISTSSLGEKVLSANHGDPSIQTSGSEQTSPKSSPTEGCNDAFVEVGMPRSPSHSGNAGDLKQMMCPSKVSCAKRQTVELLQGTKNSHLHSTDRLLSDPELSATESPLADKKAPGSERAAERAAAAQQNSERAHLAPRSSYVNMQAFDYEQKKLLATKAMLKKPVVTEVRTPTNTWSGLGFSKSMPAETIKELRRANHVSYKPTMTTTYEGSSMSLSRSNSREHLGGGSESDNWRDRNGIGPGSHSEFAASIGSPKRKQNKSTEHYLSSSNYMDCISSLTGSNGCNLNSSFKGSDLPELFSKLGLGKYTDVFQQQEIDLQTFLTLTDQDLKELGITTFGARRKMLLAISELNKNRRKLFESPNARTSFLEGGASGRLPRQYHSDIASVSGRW
UniProt P98161: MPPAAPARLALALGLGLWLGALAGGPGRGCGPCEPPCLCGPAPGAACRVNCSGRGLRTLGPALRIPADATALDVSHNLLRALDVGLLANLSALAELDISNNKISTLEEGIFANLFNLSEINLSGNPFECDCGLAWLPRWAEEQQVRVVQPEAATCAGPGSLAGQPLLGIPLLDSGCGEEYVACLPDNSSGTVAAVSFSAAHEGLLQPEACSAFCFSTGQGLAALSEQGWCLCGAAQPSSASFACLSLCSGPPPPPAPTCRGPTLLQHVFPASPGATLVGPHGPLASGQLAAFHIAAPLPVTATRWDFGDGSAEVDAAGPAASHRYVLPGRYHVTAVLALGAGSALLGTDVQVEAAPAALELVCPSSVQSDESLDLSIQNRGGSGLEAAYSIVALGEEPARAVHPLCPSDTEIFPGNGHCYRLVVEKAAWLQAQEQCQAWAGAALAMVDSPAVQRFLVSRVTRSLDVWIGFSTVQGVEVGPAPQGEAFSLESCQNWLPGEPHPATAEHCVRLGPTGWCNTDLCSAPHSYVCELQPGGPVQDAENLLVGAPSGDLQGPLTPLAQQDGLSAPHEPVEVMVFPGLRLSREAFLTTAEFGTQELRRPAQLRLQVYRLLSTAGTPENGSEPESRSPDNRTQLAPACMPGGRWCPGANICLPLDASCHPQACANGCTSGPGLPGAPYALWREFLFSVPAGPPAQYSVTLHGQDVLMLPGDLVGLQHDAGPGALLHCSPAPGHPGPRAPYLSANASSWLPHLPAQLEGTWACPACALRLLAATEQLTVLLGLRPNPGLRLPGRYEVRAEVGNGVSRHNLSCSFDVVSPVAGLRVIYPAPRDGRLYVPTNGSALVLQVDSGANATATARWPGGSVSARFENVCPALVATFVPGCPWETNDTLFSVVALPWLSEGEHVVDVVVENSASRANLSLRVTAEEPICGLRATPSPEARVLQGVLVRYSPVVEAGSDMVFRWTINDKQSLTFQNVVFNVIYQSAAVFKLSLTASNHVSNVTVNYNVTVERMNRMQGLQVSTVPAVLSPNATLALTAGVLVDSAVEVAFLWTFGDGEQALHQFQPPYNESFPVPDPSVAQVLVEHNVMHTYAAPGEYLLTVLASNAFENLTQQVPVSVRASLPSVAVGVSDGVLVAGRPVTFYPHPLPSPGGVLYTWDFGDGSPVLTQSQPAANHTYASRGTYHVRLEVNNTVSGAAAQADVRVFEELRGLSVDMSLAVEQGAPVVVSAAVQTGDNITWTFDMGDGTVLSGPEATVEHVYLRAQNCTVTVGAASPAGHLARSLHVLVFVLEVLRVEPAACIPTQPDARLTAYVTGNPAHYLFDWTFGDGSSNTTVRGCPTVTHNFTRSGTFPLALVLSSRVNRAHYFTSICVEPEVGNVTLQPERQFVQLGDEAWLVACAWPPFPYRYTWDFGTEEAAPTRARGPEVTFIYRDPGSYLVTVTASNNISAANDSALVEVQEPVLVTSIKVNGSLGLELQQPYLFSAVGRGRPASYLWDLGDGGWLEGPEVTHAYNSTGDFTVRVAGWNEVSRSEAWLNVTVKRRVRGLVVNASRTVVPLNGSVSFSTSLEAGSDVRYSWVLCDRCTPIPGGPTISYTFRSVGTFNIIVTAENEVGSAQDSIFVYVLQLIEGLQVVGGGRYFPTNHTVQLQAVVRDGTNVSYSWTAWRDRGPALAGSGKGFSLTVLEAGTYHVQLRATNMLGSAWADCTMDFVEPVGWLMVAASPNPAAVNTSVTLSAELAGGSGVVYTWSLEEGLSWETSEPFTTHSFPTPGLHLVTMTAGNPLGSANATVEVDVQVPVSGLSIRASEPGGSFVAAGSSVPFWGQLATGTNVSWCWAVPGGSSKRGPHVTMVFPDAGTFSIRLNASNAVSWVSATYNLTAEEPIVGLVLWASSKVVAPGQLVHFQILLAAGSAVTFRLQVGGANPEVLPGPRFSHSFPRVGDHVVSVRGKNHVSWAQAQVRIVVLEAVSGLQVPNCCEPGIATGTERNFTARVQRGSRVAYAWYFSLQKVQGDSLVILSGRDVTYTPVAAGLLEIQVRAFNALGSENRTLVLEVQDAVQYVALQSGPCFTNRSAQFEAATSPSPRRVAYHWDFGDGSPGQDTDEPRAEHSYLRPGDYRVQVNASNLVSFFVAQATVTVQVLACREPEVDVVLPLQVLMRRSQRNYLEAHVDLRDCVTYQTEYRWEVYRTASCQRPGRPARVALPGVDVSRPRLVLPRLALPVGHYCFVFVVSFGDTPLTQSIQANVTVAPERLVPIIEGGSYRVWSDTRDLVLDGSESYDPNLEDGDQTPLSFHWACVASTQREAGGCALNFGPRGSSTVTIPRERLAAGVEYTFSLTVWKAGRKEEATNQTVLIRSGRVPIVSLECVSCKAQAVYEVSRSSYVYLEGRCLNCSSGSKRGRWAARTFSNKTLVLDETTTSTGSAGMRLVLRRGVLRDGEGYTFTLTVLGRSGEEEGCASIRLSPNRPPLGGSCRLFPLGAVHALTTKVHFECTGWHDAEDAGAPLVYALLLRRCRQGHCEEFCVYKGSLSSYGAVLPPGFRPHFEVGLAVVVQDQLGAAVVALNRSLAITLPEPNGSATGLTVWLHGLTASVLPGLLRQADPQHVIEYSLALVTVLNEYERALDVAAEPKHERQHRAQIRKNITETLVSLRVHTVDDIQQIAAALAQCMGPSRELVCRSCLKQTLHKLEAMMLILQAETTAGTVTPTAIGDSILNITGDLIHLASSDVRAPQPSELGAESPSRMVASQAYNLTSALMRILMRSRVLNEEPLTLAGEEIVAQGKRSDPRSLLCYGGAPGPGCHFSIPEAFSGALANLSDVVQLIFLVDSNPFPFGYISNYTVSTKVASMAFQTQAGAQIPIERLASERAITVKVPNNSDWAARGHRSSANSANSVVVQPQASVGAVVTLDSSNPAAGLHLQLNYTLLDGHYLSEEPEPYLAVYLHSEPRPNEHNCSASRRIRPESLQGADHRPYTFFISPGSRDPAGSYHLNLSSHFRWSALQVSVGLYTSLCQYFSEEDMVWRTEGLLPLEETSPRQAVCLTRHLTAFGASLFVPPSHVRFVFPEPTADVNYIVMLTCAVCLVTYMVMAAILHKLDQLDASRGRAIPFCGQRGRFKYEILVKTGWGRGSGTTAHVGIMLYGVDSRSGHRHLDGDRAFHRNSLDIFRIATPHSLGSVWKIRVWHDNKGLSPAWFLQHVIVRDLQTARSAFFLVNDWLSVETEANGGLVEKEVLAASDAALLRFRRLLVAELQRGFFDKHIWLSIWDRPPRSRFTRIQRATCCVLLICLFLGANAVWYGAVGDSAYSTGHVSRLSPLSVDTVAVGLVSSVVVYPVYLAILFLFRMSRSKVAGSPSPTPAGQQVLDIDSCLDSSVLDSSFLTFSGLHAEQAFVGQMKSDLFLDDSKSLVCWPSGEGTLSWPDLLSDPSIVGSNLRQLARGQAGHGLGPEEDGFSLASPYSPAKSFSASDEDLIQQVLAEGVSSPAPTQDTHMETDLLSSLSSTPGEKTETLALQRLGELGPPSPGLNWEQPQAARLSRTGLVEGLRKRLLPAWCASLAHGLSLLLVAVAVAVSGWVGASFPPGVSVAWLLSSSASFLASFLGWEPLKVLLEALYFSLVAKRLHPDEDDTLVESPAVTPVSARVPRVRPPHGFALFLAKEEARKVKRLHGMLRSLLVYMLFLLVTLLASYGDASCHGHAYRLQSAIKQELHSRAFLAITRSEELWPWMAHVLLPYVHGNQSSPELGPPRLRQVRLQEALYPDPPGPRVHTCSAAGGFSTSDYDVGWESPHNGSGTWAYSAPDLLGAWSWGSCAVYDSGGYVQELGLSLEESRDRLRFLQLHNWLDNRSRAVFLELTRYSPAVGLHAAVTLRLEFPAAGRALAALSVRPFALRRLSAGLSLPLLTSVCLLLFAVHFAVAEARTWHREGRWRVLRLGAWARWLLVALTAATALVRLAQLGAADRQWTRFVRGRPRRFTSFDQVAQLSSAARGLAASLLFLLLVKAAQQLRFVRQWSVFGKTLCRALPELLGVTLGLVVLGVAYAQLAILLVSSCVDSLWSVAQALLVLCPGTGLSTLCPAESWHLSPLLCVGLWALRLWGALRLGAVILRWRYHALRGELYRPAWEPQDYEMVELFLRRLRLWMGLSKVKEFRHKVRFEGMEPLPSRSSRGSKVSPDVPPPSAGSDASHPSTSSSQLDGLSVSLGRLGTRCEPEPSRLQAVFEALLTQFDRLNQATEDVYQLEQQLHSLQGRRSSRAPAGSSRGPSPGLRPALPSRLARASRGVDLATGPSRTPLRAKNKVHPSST
PC1-HA (full-length HA-tagged Polycystin-1): residues 24-4303 of P98161
GST-CT1 (mammalian GST fusion, co-expressed in cells): residues 4107-4303 of P98161
GST-CT1-R4227X (mammalian GST fusion, co-expressed in cells): residues 4107-4226 of P98161

Experiments:
[1] = molecular target: endogenous BICC1 in UCL93 cells (human (endogenous in UCL93)) (UniProt Q9H694); experiment: co-IP; endogenous proteins in lysates of UCL93 human kidney epithelial cells; IP with rabbit anti-PC1 (2b7), anti-BICC1 or anti-PC2
[2] = molecular target: T1, GST-CT2 (bacterial, purified) (UniProt Q13563); experiment: condition: 1–2 µg GST fusion protein and 10 µl myc-mBicc1 IVT in 300 μl; pull-down; in vitro: 1–2 µg bacterial GST fusion protein (bait) and 10 µl in vitro translated myc-mBicc1 in 300 μl 1×TBST with 0.2% Tween20, 1 hour at room temperature, Glutathione Sepharose 4B; only the target purified
T1 sequence: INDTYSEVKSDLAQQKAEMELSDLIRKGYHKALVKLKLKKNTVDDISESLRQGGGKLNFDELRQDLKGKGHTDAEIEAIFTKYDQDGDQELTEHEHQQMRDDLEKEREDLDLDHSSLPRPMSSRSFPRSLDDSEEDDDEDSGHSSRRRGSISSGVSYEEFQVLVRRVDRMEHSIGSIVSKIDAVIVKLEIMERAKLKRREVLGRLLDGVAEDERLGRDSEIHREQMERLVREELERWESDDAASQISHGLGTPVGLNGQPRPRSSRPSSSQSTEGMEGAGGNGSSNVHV

[3] = molecular target: GST-CT1-R4227X (bacterial, purified) (UniProt P98161); experiment: as above
[4] = molecular target: T2, GST-NT2 1-100 (bacterial, purified) (UniProt Q13563); experiment: pull-down; in vitro: 1–2 µg bacterial GST fusion protein (bait) and 10 µl in vitro translated myc-mBicc1 in 300 μl 1×TBST with 0.2% Tween20, 1 hour at room temperature, Glutathione Sepharose 4B; only the target purified
T2 sequence: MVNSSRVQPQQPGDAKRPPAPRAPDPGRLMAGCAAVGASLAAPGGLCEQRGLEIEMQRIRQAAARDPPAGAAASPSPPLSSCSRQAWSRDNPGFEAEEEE

[5] = molecular target: T3, GST-NT2 101-223 (bacterial, purified) (UniProt Q13563); experiment: as above
T3 sequence: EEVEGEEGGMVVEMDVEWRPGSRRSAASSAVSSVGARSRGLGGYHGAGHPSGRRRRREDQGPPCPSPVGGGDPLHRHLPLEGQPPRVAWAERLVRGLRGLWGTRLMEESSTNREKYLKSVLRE

[6] = molecular target: GST-CT1 (bacterial, purified) (UniProt P98161); experiment: as above
[7] = molecular target: T4, GST-NT2 (bacterial, purified) (UniProt Q13563); experiment: as above
T4 sequence: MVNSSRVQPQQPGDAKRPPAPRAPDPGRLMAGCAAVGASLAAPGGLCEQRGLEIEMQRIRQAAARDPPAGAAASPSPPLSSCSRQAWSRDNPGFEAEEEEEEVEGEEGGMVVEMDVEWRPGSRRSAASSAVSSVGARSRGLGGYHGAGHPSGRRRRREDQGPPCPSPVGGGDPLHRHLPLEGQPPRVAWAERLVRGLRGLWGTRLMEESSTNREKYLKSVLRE

[8] = molecular target: PC1-HA (full-length HA-tagged Polycystin-1) (UniProt P98161); experiment: co-IP; myc-mBicc1 constructs co-expressed with HA-tagged PC1 or PC2 in HEK-293 cells; the HA-tagged protein as bait
[9] = molecular target: T5, PC2-HA (full-length HA-tagged Polycystin-2) (UniProt Q13563); experiment: as above
T5 sequence: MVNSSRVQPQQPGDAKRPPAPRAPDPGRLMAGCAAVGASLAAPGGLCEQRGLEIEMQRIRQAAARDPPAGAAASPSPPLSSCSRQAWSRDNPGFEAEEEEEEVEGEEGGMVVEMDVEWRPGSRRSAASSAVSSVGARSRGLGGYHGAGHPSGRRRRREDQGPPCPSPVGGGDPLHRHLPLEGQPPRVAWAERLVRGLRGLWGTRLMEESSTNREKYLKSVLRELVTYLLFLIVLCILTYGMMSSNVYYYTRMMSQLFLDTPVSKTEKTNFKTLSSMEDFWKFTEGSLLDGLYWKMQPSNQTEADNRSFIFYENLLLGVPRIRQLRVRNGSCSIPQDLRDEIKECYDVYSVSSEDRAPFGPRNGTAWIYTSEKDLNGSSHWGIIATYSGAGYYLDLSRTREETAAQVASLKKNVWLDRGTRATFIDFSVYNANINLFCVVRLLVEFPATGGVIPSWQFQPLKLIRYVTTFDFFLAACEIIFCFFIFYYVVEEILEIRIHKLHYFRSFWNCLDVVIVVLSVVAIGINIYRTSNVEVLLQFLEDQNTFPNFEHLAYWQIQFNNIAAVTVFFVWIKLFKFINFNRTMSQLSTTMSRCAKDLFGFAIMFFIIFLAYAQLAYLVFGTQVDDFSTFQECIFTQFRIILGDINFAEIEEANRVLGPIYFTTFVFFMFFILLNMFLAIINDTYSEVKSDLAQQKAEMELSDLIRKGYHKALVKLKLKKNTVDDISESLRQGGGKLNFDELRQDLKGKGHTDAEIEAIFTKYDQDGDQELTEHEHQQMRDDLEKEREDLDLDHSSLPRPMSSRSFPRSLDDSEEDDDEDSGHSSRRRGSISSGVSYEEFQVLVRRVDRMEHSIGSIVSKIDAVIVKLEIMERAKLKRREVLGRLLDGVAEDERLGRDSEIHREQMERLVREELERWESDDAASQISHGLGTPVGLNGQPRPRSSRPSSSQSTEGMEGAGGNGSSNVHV

[10] = molecular target: T6, GST-NT2 (mammalian GST fusion, co-expressed in cells) (UniProt Q13563); experiment: pull-down; GST pull-down from cells co-expressing GST-tagged PC1 or PC2 domains (bait) and myc-mBicc1; HEK-293
T6 sequence: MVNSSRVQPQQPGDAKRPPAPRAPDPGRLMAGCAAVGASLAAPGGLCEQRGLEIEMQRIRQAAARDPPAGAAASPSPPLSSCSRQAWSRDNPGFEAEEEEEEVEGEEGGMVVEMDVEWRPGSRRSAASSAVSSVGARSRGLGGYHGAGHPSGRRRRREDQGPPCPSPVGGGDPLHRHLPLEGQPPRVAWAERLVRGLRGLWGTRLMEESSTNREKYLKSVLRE

[11] = molecular target: GST-CT1 (mammalian GST fusion, co-expressed in cells) (UniProt P98161); experiment: as above
[12] = molecular target: GST-CT1-R4227X (mammalian GST fusion, co-expressed in cells) (UniProt P98161); experiment: as above

binding [1]: binds
B1: endogenous PC2 (Polycystin-2) in UCL93 cells (protein, UniProt Q13563 1-968)
chain: MVNSSRVQPQQPGDAKRPPAPRAPDPGRLMAGCAAVGASLAAPGGLCEQRGLEIEMQRIRQAAARDPPAGAAASPSPPLSSCSRQAWSRDNPGFEAEEEEEEVEGEEGGMVVEMDVEWRPGSRRSAASSAVSSVGARSRGLGGYHGAGHPSGRRRRREDQGPPCPSPVGGGDPLHRHLPLEGQPPRVAWAERLVRGLRGLWGTRLMEESSTNREKYLKSVLRELVTYLLFLIVLCILTYGMMSSNVYYYTRMMSQLFLDTPVSKTEKTNFKTLSSMEDFWKFTEGSLLDGLYWKMQPSNQTEADNRSFIFYENLLLGVPRIRQLRVRNGSCSIPQDLRDEIKECYDVYSVSSEDRAPFGPRNGTAWIYTSEKDLNGSSHWGIIATYSGAGYYLDLSRTREETAAQVASLKKNVWLDRGTRATFIDFSVYNANINLFCVVRLLVEFPATGGVIPSWQFQPLKLIRYVTTFDFFLAACEIIFCFFIFYYVVEEILEIRIHKLHYFRSFWNCLDVVIVVLSVVAIGINIYRTSNVEVLLQFLEDQNTFPNFEHLAYWQIQFNNIAAVTVFFVWIKLFKFINFNRTMSQLSTTMSRCAKDLFGFAIMFFIIFLAYAQLAYLVFGTQVDDFSTFQECIFTQFRIILGDINFAEIEEANRVLGPIYFTTFVFFMFFILLNMFLAIINDTYSEVKSDLAQQKAEMELSDLIRKGYHKALVKLKLKKNTVDDISESLRQGGGKLNFDELRQDLKGKGHTDAEIEAIFTKYDQDGDQELTEHEHQQMRDDLEKEREDLDLDHSSLPRPMSSRSFPRSLDDSEEDDDEDSGHSSRRRGSISSGVSYEEFQVLVRRVDRMEHSIGSIVSKIDAVIVKLEIMERAKLKRREVLGRLLDGVAEDERLGRDSEIHREQMERLVREELERWESDDAASQISHGLGTPVGLNGQPRPRSSRPSSSQSTEGMEGAGGNGSSNVHV

binding [2]: no binding
binding [3]: no binding
binding [4]: binds
binding [5]: binds
binding [6]: binds
binding [7]: binds
B2: myc-mBicc1 IVT (in vitro translated) (protein, UniProt Q99MQ1 1-977)
chain: MASQSEPGYLAAAQSDPGSNSERSTDSPVAGSEDDLVAAAPLLHSPEWSEERFRVDRKKLEAMLQAAAEGKGRSGEDFFQKIMEETNTQIAWPSKLKIGAKSKKDPHIKVSGKKEDVKEAKEMIMSVLDTKSNRVTLKMDVSHTEHSHVIGKGGNNIKKVMEDTGCHIHFPDSNRNNQAEKSNQVSIAGQPAGVESARARIRELLPLVLMFELPIAGILQPVPDPNTPSIQHISQTYSVSVSFKQRSRMYGATVTVRGSQNNTNAVKEGTAMLLEHLAGSLASAIPVSTQLDIAAQHHLFMMGRNGSNVKHIMQRTGAQIHFPDPSNPQKKSTVYLQGTIESVCLARQYLMGCLPLVLMFDMKEDIEVDPQVIAQLMEQLDVFISIKPKPKQPSKSVIVKSVERNALNMYEARKCLLGLESSGVSIATSLSPASCPAGLACPSLDILASAGLGLTGLGLLGPTTLSLNTSATPNSLLNALNTSVSPLQSSSSGTPSPTLWAPPIANTASATGFSTIPHLMLPSTAQATLTNILLSGVPTYGHTAPSPPPGLTPVDVHINSMQTEGKNISASINGHVQPANMKYGPLSTSSLGEKVLSSNHGDPSMQTAGPEQASPKSNSVEGCNDAFVEVGMPRSPSHSGNAGDLKQMLGASKVSCAKRQTVELLQGTKNSHLHGTDRLLSDPELSATESPLADKKAPGSERAAERAAAAQQKSERARLASQPTYVHMQAFDYEQKKLLATKAMLKKPVVTEVRTPTNTWSGLGFSKSMPAETIKELRRANHVSYKPTMTTAYEGSSLSLSRSSSREHLASGSESDNWRDRNGIGPMGHSEFSAPIGSPKRKQNKSREHYLSSSNYMDCISSLTGSNGCNLNSCFKGSDLPELFSKLGLGKYTDVFQQQEIDLQTFLTLTDQDLKELGITTFGARRKMLLAISELSKNRRKLFEPPNASCTSFLEGGASGRLPRQYHSDIASVSGRW

binding [8]: binds
binding [9]: binds
binding [10]: binds
binding [11]: binds
binding [12]: no binding
B3: myc-mBicc1 (full-length, transfected in HEK-293 cells) (protein, UniProt Q99MQ1 1-977)
chain: MASQSEPGYLAAAQSDPGSNSERSTDSPVAGSEDDLVAAAPLLHSPEWSEERFRVDRKKLEAMLQAAAEGKGRSGEDFFQKIMEETNTQIAWPSKLKIGAKSKKDPHIKVSGKKEDVKEAKEMIMSVLDTKSNRVTLKMDVSHTEHSHVIGKGGNNIKKVMEDTGCHIHFPDSNRNNQAEKSNQVSIAGQPAGVESARARIRELLPLVLMFELPIAGILQPVPDPNTPSIQHISQTYSVSVSFKQRSRMYGATVTVRGSQNNTNAVKEGTAMLLEHLAGSLASAIPVSTQLDIAAQHHLFMMGRNGSNVKHIMQRTGAQIHFPDPSNPQKKSTVYLQGTIESVCLARQYLMGCLPLVLMFDMKEDIEVDPQVIAQLMEQLDVFISIKPKPKQPSKSVIVKSVERNALNMYEARKCLLGLESSGVSIATSLSPASCPAGLACPSLDILASAGLGLTGLGLLGPTTLSLNTSATPNSLLNALNTSVSPLQSSSSGTPSPTLWAPPIANTASATGFSTIPHLMLPSTAQATLTNILLSGVPTYGHTAPSPPPGLTPVDVHINSMQTEGKNISASINGHVQPANMKYGPLSTSSLGEKVLSSNHGDPSMQTAGPEQASPKSNSVEGCNDAFVEVGMPRSPSHSGNAGDLKQMLGASKVSCAKRQTVELLQGTKNSHLHGTDRLLSDPELSATESPLADKKAPGSERAAERAAAAQQKSERARLASQPTYVHMQAFDYEQKKLLATKAMLKKPVVTEVRTPTNTWSGLGFSKSMPAETIKELRRANHVSYKPTMTTAYEGSSLSLSRSSSREHLASGSESDNWRDRNGIGPMGHSEFSAPIGSPKRKQNKSREHYLSSSNYMDCISSLTGSNGCNLNSCFKGSDLPELFSKLGLGKYTDVFQQQEIDLQTFLTLTDQDLKELGITTFGARRKMLLAISELSKNRRKLFEPPNASCTSFLEGGASGRLPRQYHSDIASVSGRW
